For 34 variants, self-cleavage results are on record in the RNAGym collection of RNA variant scans (doi:10.1093/nar/gkz1192).

The chains are these.
B1: CPEB3 Ribozyme (parent)
chain: UAACAGGGGGCCACAGCAGAAGCGUUCACGUCGCAGCCCCUGUCAGAUUCUGGUGAAUCUGCGAAUUCUGCUGUAUAUCUC

Read counts are not given, so values of variants with three or more changes are uncertain.

Variants of B1 are the subject of this data set. In words: self-cleavage, relative activity (ratio to wild type); higher = more cleavage; in vitro, sequencing. An outline of the steps:
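Barcoded CPEB3 ribozyme mutants, produced by rounds of error-prone PCR, self-cleaved while being transcribed with T7 RNA polymerase for 5 hours at 37°C and during a subsequent 15 min DNase I step before EDTA was added. Sequencing of template-switched cDNA on Illumina gave cleaved and total reads, and DNA sequencing assigned barcodes to variants. Each variant's relative activity is its cleaved/total read fraction divided by the unmutated ribozyme's fraction, averaged across three batches. A variant needed a minimum of 5 reads.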
Take UAACAGGGGGUCACAGCAGAGGCGUUCACGUCGCAGCCCCUGUCAGAUUCUGGUGAAUCUGCGAAUUCUGCAGUAUAUCUC: the self-cleavage came out at 0.13.
Regarding UAACAGGGGGUCACAGCAGAAGCGUUCACGUCGCUGCCCCCGCCAGAUUCUGGUGAAUCUGCGAAUUCUGCUGUUUAUCUC, the self-cleavage was determined as 0.13.
As for UAACAGGGGGUCACAGCAGAAGCGUUCCCGUCGCAGCCCCUGUCAGAUUCCGGUGAAUCUGCGAAUUCUGCAGUAUAUCUC, the self-cleavage came out at 0.29.
With UAACAGGGGGUCACAGCAGAAGCAUUCACGUCGCAGCCCCUGUCAGAUUCUGGUGAAUCUACGAACUCUGCAGUAUAUCUC, the self-cleavage was 0.11.
UAACAGGGGGUCACAGCAGAUGCGCUCACGUCGCAGCCCCUGUCAGAUUCUGGUGAAUCUGCGAAUUCUGCUGUAUAUCUC: the self-cleavage was determined as 0.04.
UAACAGGGGGUCACAGCAGAAGCGUUCACGUAGCAGCCCCUGUUAGAUUCCGGUGAAUCUGCGAAUUCUGCUGUAUUCCUC: the self-cleavage amounted to 0.11.
Turning to UAACAGGGGGUCACAGCAGAAGCGUUCACGUCGCAGCCCCUGUCGGAUUCUGGUGACUCUGCGAACUCUGCUGUAUAUCUC, the self-cleavage came to 0.06.
In the case of UAACAGGGGGUUACAGCAGAAGCGUUAACGUCGCAGCCCCUGUCAGAUUCUGGUGAACCUGCGAAUUCUGCAGUAUAUCUC, the self-cleavage is 0.08.
The same measure for UAACAGGGGGUCACAGCAGAGGCGUCCACGUCGCAGCCCCUGUCAGAUUCUGGUGAAUAUGCGGAUUCUGCUGUAAAUCUC: 0.03; for UAACAGGGGGUCACAUCAGUAGCGUUCACGUUGCUGCCCCUGUCAGAUUCUGGUGAAUCUGCGAAUUCUGCUGUAUAUCUC: 0.21; for UAACAGGGGGUCACAGCAGAAGCGUUCACGUCGCAGCCCCUGUCAGUCUCUGGUGAAUCUGCGAAUUCUGCUGUAAUUCUC: 0.06.
As for UAACAGGGGGUCACAGCAGAAGCGUUCACGUCGCCGCCCCUGUCAGAUUCUGGUGAAUCUGCGAGUUCUGCUGUAUAUCUC, the self-cleavage turned out to be 0.18.
With UAACAGGGGGUCACAGCAGAAGCGUUCACGUCGCAGCCCCUGUCAGAUUCUGGUGAGCCUGCGAAUUCCGCUGUAUAUCUC, the self-cleavage was determined as 0.06.
In the case of UAACAGGGGGUCACAGCAGAAGCGUUCACGUCGCAGCCCCUGUCAGUUUCUGGUGAAUCUGCGAAAUCUGCUGUAUAUCCC, the self-cleavage amounted to 0.05.
As for UAACAGGGGGUCACAGCAGAAGCGUUGACGUCGCAGCCCCUGUCAGAUUCUGGUGAAUCUGCGAAUUCAGCUGUAUGUCUC, the self-cleavage is 0.08.
As to UAACAGGGGGUCACAGCAGAAGCGUUCACGUCGCAGCCCCUGUCAGAUUCUGGUGAAUCUGCGAAUUCUGCUGUAUGUCUU, the self-cleavage was found to be 0.57.
With UAACAGGGGGUCACAGCAGAAGGGUUCACGCCGCAGCCCCUGUCAGAUUCUGGUGAAUCUGCGAAUUCUGCUGUAUAUCUC, the self-cleavage was 0.05.
As for UAACAGGGGGUCACAGCAGAAGCGUUCACGUCGCCGCCCAUGUCAUAUUCUGGUGAAUCUGCGAAUUCUGCUGUAUAUCAC, the self-cleavage amounted to 0.04.
Regarding UAACAGGGGGUCACAGCAGAAGCGUUCGCGUCGCAGCCCCUGUCAGAUUCUGGUGAAUCUUCGAAUUCUGCUGUAUAUCUC, the self-cleavage was 0.06.
On to UAACAGGGGGUCACAGCAGAGGCGUACACGUCGCAGCCCCUGUCAGAUUCUGGUGAACCUGCGAACUCUGCUGUAUAUCUC, for which the self-cleavage worked out at 0.12.
As for UAACAGGGGGUCACAGCAGAAGCGUUCACGUCGCAGCCCCUGUCAGGUUCAGGUGAACCUGCGAAUUCUGCUGUAUAUCUC, the self-cleavage worked out at 0.31.
On to UAACAGGGGGUCACAGCAGAAGUGUUCACGUCGCAGCCCCUGCCAGAUUUUGGUGUAUCUGCGAAUUCUGCAGUAUACCUC, for which the self-cleavage is 0.03.
For the variant UAACAGGGGGUCACAGCAGAAGCGUUCAGGUGGCAGCCCCUGUCAGAUUCUGGUGAACCCUCGAAUUCUGCUGUAUAUCUC, the self-cleavage came out at 0.04.
On to UAACAGGGGGUCACAGCAGAGGCGUCCACGUCGCAGCCUCUGUCAGAUUCUGGCGAACCUGCGAAUUCUGCUGUAUACCUC, for which the self-cleavage came to 0.03.
Regarding UAACAGGGGGUCACAGCAGAAGCGUUCGCGUCGCAGCCCCUGUCAGAUUCUGGUGAAUCUGCGAAUUCUGCUGUAUAUAAC, the self-cleavage is 0.28.
Turning to UAACAGGGGGUCACAGCAGAAGUGUUCACGUCGCAGCCCCUGUCAGAUUCAGGUGAAUCAGCGAAUUCUGCUGUAUAUCUC, the self-cleavage came to 0.16.
Regarding UAACAGGGGGUCACAGCAGAAGCGUUCACGUCGCUGCCCCUGUCUGAUCCUGGUGAAUCUGCGAAUUCGGCUGUAUAACUC, the self-cleavage amounted to 0.12.
Regarding UAACAGGGGGUCACAGCAGAAGCGUUCACGUCGCAGCCCCUGUCCGAUUCUGGAGAAUCUGCGAAUUCUGCAGUAUAUCUC, the self-cleavage amounted to 0.08.
The same measure for UAACAGGGGGUCACAGCAGAAGCGUUCACGUCGCAGCCCGUGAUAGAUUCUGGUGAAUCUGCGAGUUCUGCUGUAUAUCUC: 0.13; for UAACAGGGGGUCACAGCAGAAGCGUUCACGUCGCAGCCCCUGUCCGAUUCUGGUGACUCUGCGAAUUCUGCUGUAUAUCUC: 0.06.
For UAACAGGGGGUCACAGCAGAAGCGUUCACGUCGCGGCCCCUGUCAGAUUCUGGUGAAUCUGCGAAUACUGCUGUAUAUCUC, the self-cleavage is 1.07.
To UAACAGGGGGUCACAGGAGAAGCGGUCACGUCGCAGCCCCUGUCAGAUCCUGGCGAGUCUGCGAAUACUGCUGUAUAUCUC belongs 0.02.
As to UAACAGGGGGUCACAGCAGAAGCGUUCACGUCGCAGCCCCUGUAAGACUCUGGUGAAUCUGCGAAUUCUGCUGUAUAUCUC, the self-cleavage came to 0.35.
For UAACAGGGGGUCACAGCAGAAGCAAUCACGUCGCAGCCCCUGUCAGAUUCUGGUGGAUCCGCGAAUUCUGCUGCAUAUCUC, the self-cleavage amounted to 0.15.
